Reference: paper PMC4336329 (PLoS ONE, 2015)
Screen size: about 310,000 compounds; about 14,000 (4.5%) showed an effect of 50% or more. Effects have a minus sign here. Some of the results follow.

Target: human ether-à-go-go-related gene (hERG) potassium channel (human, UniProt Q12809)
Assay: primary screen, population patch clamp on CHO cells stably expressing hERG
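Further: peak tail current of the secondary pulse compared with the same well before compound.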

Chain of human ether-à-go-go-related gene (hERG) potassium channel (Q12809 whole entry, looked up): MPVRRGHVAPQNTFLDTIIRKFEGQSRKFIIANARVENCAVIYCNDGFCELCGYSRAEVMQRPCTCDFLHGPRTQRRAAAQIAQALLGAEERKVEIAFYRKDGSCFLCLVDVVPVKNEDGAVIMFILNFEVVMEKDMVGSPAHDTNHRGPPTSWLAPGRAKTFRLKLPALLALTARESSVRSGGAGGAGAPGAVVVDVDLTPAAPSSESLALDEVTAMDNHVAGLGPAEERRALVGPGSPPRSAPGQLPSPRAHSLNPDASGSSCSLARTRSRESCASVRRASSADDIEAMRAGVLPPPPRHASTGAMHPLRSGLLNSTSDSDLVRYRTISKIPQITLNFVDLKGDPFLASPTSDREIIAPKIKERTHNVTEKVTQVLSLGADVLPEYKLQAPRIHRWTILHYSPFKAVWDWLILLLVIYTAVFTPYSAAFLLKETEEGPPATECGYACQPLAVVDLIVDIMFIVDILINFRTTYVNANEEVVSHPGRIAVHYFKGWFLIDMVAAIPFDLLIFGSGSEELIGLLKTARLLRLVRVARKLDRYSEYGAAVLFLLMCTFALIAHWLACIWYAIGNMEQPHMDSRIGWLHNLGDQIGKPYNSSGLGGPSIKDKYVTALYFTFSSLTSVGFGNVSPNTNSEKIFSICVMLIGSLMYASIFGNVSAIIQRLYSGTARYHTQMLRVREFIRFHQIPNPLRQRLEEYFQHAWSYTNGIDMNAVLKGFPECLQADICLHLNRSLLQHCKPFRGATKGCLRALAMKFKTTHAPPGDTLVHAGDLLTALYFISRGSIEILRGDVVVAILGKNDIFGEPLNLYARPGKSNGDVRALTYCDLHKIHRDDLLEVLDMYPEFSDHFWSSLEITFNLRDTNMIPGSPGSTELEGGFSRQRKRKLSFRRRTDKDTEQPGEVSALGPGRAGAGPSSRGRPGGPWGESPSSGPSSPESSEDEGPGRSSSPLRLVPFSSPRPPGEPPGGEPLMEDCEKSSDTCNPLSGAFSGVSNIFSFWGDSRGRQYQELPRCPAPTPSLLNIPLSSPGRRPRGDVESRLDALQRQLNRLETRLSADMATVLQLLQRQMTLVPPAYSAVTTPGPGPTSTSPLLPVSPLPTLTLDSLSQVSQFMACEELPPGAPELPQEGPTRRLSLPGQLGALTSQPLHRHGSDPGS

SMILES | hERG current change (%, negative = inhibition) at 10uM
O=c1[nH]c(=S)[nH]c(O)c1N=Nc1ccc2c(c1)OCO2 | 14.8%
COc1cc(/C=N/O)cc(Br)c1OC | 4.3%
OCC1(Cc2ccccc2)CCN(Cc2cnn(-c3ccccc3F)c2)CC1 | -41.9%
COc1ccc(NC(=O)COC(=O)[C@@H]2CCCN2S(=O)(=O)c2ccccc2F)c(OC)c1 | -18.2%
COc1cc(CN2CCCCCC2)c([N+](=O)[O-])cc1OC | 3.94%
Cc1sc(-n2c(C)cc(C=O)c2C)c(C(=O)O)c1C | 1.53%
CCOC(=O)c1c(NC(C)=O)sc2c(O)cccc12 | 2.36%
CCN(CCO)Cc1csc2ccc(C(C)(C)C)cc12.Cl | -48.9%
COc1cc(/C=C2\C(=N)N3N=C(C)SC3=NC2=O)cc(Cl)c1OCCOc1ccc(NC(C)=O)cc1 | 14.5%
CCOc1ccc(C(=O)C(C)OC(=O)C2CCN(c3ccc(C(F)(F)F)cn3)CC2)cc1 (centres unmarked) | -31%
CCCn1c(N2CCN(C(=O)N3CCCCC3)CC2)nc2ccccc21.Cl | -20.4%
COc1cc(OC)cc(-c2c(C#Cc3ccsc3)c3cc(-c4ccc5[nH]ccc5c4)ccc3n2C)c1 | 5.34%
c1ccc(-c2nc(-c3ccc(-c4ccon4)s3)no2)cc1 | 19.1%
CCn1c(SCC(=O)NCc2ccc3c(c2)OCO3)nnc1-c1c[nH]c2ccccc12 | -3.24%
COc1cc(/C=C/c2nc3ccccc3c(=O)[nH]2)cc(Br)c1O | 30.6%
CCn1cc(C(=O)NCCCOC)c(=O)c2cc(S(=O)(=O)N3CCCC3)ccc21 | -4.05%
CC(=O)c1nc2ccccc2n1CCc1ccccc1 | -7.1%
CCN(CC)C(=O)CSc1nc2c(sc(=S)n2-c2ccccc2)c(=O)n1Cc1ccco1 | -78.7%
CC(C)c1ccc(CN(C(=O)c2cc3ccccc3oc2=O)C2CCS(=O)(=O)C2)cc1 (centres unmarked) | -62%

SMILES | hERG current change (%, negative = inhibition) at 10uM
COCCN1C(=O)N[C@@H](c2cccc(C(F)(F)F)c2)[C@H](C(=O)OC)[C@H]1C | -6.73%
CCOC(=O)C1(C)NC(c2ccco2)C2C(=O)N(c3ccccc3)C(=O)C21 (centres unmarked) | 10.4%
CC1C/C(=N\Nc2ccc(S(N)(=O)=O)cc2[N+](=O)[O-])CC(C)(C)C1 (centres unmarked) | 14.3%
O=C(NCCCNc1ccc(C(F)(F)F)cc1[N+](=O)[O-])c1ccc(Cl)cc1 | -12.3%
O=C(COc1nc2ccccc2nc1N1CCOCC1)NC1CCCCC1 | 3.98%
Cc1ccc(CNC(=O)c2ccc(OCC(C)C)cc2)n1C | 8.73%
COc1cccc(C(=O)NN2c3ccccc3CCc3ccccc32)c1 | 4.2%
CC(=O)N1CCN2C(=O)C1CCCC(=O)c1cc(C)ccc12 (centres unmarked) | 9.36%
CCc1ccc(NS(=O)(=O)c2cccc3nonc23)cc1 | 1.41%
CCOC(=O)c1ccc2c(c1)nc(SCC(=O)c1cc3ccccc3o1)n2CC | 17.4%
COc1ccc(C(CNC(=O)CSc2ccc(Br)cc2C)N2CCOCC2)cc1 (centres unmarked) | -26%
CCOC(=O)Cc1cnc(NC(=O)CSc2nc(C)c(CC)c(=O)[nH]2)s1 | 11.9%
C(=N\Nc1nc(N2CCCC2)nc(N2CCCC2)n1)/c1cccnc1 | 6.33%
Cl.O=C(Cc1ccccc1)OC(COCc1ccccc1)CN1CCOCC1 (centres unmarked) | -7.21%
COC(=O)c1ccc(NCC(=O)N2CCCCCC2)cc1 | -8.63%
CC(=O)Nc1ccc(N(CC(O)Cn2c3ccccc3c3ccccc32)S(=O)(=O)c2ccc(C)cc2)cc1 (centres unmarked) | -8.96%
O=C(OCC(=O)N1CCCC1)c1ccco1 | 4.85%
CCOC(=O)C(Cc1ccccc1)c1ccnc2nc(N)nn12 (centres unmarked) | -7.02%
COc1cc(CN2CCN(C(=O)c3cccc4ccccc34)CC2)cc(OC)c1OC.O=C(O)C(=O)O | 4.24%

SMILES | hERG current change (%, negative = inhibition) at 10uM
O=C(Nc1ccc2c(c1)OCO2)c1n[nH]c(=O)c2ccccc12 | 4.23%
CC1CCc2nc(NC(=O)C3COc4ccccc4O3)sc2C1 (centres unmarked) | -6.74%
Cc1cccc(OCC(=O)Nc2ccc3c(c2)nc(CCN2CCN(c4ccccn4)CC2)n3C)c1 | -79.5%
CCOC(=O)Cc1c(C)nc2c(-c3ccc(Cl)cc3)c(C)[nH]n2c1=O | 20.6%
O=C(NC1CCc2ccccc21)C1CCN(S(=O)(=O)c2ccc(Cl)cc2)CC1 (centres unmarked) | 3.03%
O=C(CNC(=O)c1ccc2ccccc2c1)NCc1ccccc1F | 0.302%
O=C(NNC(=S)NCCc1ccccc1)c1ccc(Br)s1 | 10%
CC(NC(=O)NC1CCCCC1)c1ccccc1 (centres unmarked) | -3.12%
CC(C)N(Cc1ccccc1)C(=S)Nc1ccc(F)cc1 | -3.42%
N/C(=N\OC(=O)COc1ccc(Cl)cc1Cl)c1cccnc1 | 40.6%
CC(=O)NC(CC(=O)NC1CCCc2ccccc21)c1ccccc1 (centres unmarked) | 8.17%
O=C(COC(=O)c1cnccn1)Nc1ccc(Cl)cn1 | 12.1%
Cn1c(CCC(=O)Nc2ccc(N3CCOCC3)cc2)nc(=O)c2ccccc21 | 10.2%
CNc1nc(-c2ccc(S(=O)(=O)N3CCCCC3)cc2)cs1 | 10.1%
CCN(Cc1ccc(OC)c(COC)c1)CC1CCCN(CCc2cccc(OC)c2)C1 (centres unmarked) | -26.3%
O=C(NCCCN1CCOCC1)c1ccc2c(c1)N(Cc1ccc(Cl)cc1)C(=O)c1ccccc1S2=O (centres unmarked) | -42.1%
COc1cccc(OCc2cc(C(=O)NCc3ccccn3)no2)c1 | 1.59%
COc1ccc(N2CSC3=C(C#N)C(c4ccc(OC)c(OC)c4)CC(=O)N3C2)c(OC)c1 (centres unmarked) | -47.5%
